Laboratory results: PMC12136788
This is one part of the list.

B1: chr14:101901747:101901860:+|CDS|ENSG00000078304|unk|total|mutant (ssRNA)
RNA: GGGAGUUCUACAGUCCGACGAUCCUGGCCAAAGACUCACAGUCCAAAAGAAGUAAUGUUCUUAAACGAAUCCGAAGAGAUUUCCGAUGUCAUUGAACCAUCAGAAUUUGUGAAGAUCAUGGAACCCCUCUUCCGGCAGUUGGCCAACAGAGGAUUGAGCAUCA
B2: chr2:27243795:27243896:+|3pUTR|ENSG00000084774|unk|FALSE|unique (ssRNA)
RNA: GGGAGUUCUACAGUCCGACGAUCACUUAAUAAACAGCCGAGCUGUCCCUUGAUGCUGAGUGUAGUAGAACAGAGCUUUCUUUUAGAAAAUUGAGCAGAUUCCCAAAUUAUAAGAGCAGCCUCACCAGGCAGGGCUCUGGCUAGCAACAGAGGAUUGAGCAUCA
B3: chr12:122865329:122867115:-|three_prime_utr|ENSG00000139722|control|control|control (ssRNA)
RNA: GGGAGUUCUACAGUCCGACGAUCUGGAGGUCCGCUCUGUGCCAAGGGCUCUGGGGCCCUGGGCCAGCGUGUCUGUCUGAUUUUAGAACUGUAGGUCAGUGGUGAGUAGUAGGAGCCCAGGCUUUGGGCAUCAAGGCAGUUGUGCAACAGAGGAUUGAGCAUCA
B4: chr2:128192036:128192329:+|3pUTR|ENSG00000136731|msi1|FALSE|unique (ssRNA)
RNA: GGGAGUUCUACAGUCCGACGAUCAUGUCCUGGUGUCACUCAUUGCCUCUUAUCUGUCGCCAUUCUAAUAUAAGUCAGCUUAAUAGUUGACUCUGAAUAAUGCAAAACCCAGCUUGCUUCCAGAAUGGCCUAGGACCCUCCUCCCAACAGAGGAUUGAGCAUCA
B5: chr17:63423787:63423888:+|3pUTR|ENSG00000170921|msi1|total|mutant (ssRNA)
RNA: GGGAGUUCUACAGUCCGACGAUCCUAACUCAAGCCCCAGCCUCUUUCCACACUCCCUGAUACCUAAGGACUGCUUUCUCAGCCCGACCAGGGUGGGCAUCAGCGACGCCUUCUCAGCCCGACCAGGGCCGGCAUCAGCGUCCUCAACAGAGGAUUGAGCAUCA
B6: ENSG00000166086:stop:overlap|stop_codon|ENSG00000166086|stop_codon|NA|stop_codon (ssRNA)
RNA: GGGAGUUCUACAGUCCGACGAUCUCCUGCUGCUGCUUUUCAGGGAGUCAAGUCUAGUCUGCUUUCCAAGGCUGCAUUCUAAGUAGUGAAGCCUCAACUUCAUAUUUACCUAAAGCAGGACACCACACUCUUCCCCUGGCAGCCCAACAGAGGAUUGAGCAUCA
B7: chr19:3536616:3536717:+|3pUTR|ENSG00000105325|msi1|total|mutant (ssRNA)
RNA: GGGAGUUCUACAGUCCGACGAUCACCGCCGCAGGGCCAGGCGGACGGCGUGAGGUUUGUGUUGGGGCUGGUUCUGCCCAUGCCCGGGGGUGGGGGAGCUCCCAGGACAGACCAGCCUUGUUUCUCAUGUAAUGCAGUGACGCUCAACAGAGGAUUGAGCAUCA
B8: chr5:97028609:97028710:+|3pUTR|ENSG00000113441|msi1|FALSE|bound_elsewhere (ssRNA)
RNA: GGGAGUUCUACAGUCCGACGAUCUUGCAAAAGCCAAGGUAAAGCCAGGAUCGCUGCCAAGUUGUUUGCACUCUUUGGAGUUCUAGUUAGCUCAGGGCCUGACUGUAUUUUUCAUCCAUCUUUUCUGAAGUGUCUUUGGGCAGUCAACAGAGGAUUGAGCAUCA
B9: chr4:186619803:186619904:-|CDS|ENSG00000083857|msi1|FALSE|unique (ssRNA)
RNA: GGGAGUUCUACAGUCCGACGAUCAGACGGAGACCCUUUCAGCCAGUUCACUAUUAACUUCAAUACUGGAGUUAUCAAUGUCAUAGCUCCUCUGGACUUUGAGGCCCACCCGGCAUAUAAGCUGAGCAUACGCGCAACUGACUCCAACAGAGGAUUGAGCAUCA
B10: chr1:169588848:169589605:-|three_prime_utr|ENSG00000174175|control|control|control (ssRNA)
RNA: GGGAGUUCUACAGUCCGACGAUCAUAAUGCAUUUGCUGCAGGUUUCCAUAAACACCCAUGAAUCAAAGACAUGGAAUUACCUUAGAUUAGCUCUGGACCAGCCUGUUGGACCCGCUCUGGACCAACCCUGUUUCCUGAGUUUGCAACAGAGGAUUGAGCAUCA
B11: ENSG00000092201:stop:overlap|stop_codon|ENSG00000092201|stop_codon|NA|stop_codon (ssRNA)
RNA: GGGAGUUCUACAGUCCGACGAUCUUCCCCGCGUGCCAGCCUUGGUCAUGCAUAGCAGCACCUCUCGCAGUCUCUUCCCGCCCUAGAAGAGGCAACAUCCUUCCCUCCUACUCCGUGGUCACGUCUUGCUGCCCUCCCCUGCCGCAACAGAGGAUUGAGCAUCA
B12: ENSG00000077092:stop:overlap|stop_codon|ENSG00000077092|stop_codon|NA|stop_codon (ssRNA)
RNA: GGGAGUUCUACAGUCCGACGAUCUGCUGAAGGCCGCCUGCCUGGACAUCCUGACCGCCAGGACCUUGAGGAACCGACAAAAGUAGAUAAGCUACAAGAACCAUUGCUGGAAGCACUAAAAAUUUAUAUCAGAAAAAGACGACCCAACAGAGGAUUGAGCAUCA
B13: chr12:68839811:68839877:+|CDS_3pUTR|ENSG00000135679|msi1_unk|FALSE|overlapping (ssRNA)
RNA: GGGAGUUCUACAGUCCGACGAUCAUAAGCCCUGCCCAGUAUGUAGACAACCAAUUCAAAUGAUUGUGCUAACUUAUUUCCCCUAGUUGACCUGUCUAUAAGAGAAUUAUAUAUUUCUAACUAUAUAACCCUAGGAAUUUAGACCAACAGAGGAUUGAGCAUCA
B14: chr10:122937732:122937852:-|CDS|ENSG00000119965|unk|FALSE|unique (ssRNA)
RNA: GGGAGUUCUACAGUCCGACGAUCGUAAGUGACAACUCAAAUAUACCCAACUCCGAGUUGCUGCCUUUUCUCCAGAAUUUAUGUAGUCAAGUUAAUCAUCUCCAUGUGGGAAAUAAGACCGAGUGUCAGGAAAACAUCACCAAGCAACAGAGGAUUGAGCAUCA

Biological target: MSI1 full-length (mouse, UniProt Q61474 1-362)
Assay: nsRBNS (natural sequence RNA bind-n-seq); RBNS binding buffer (assumed for nsRBNS): 25 mM Tris pH 7.5, 150 mM KCl, 3 mM MgCl2, 0.01% Triton X-100, 500 ug/ml BSA, 20 U/ml SUPERase-In, 4 C; UNK is unkempt and MSI1 is Musashi-1; names of the RNAs are library labels; protein concentration not given here; high values mean tight binding

Chain of UniProt Q61474 (Q61474 whole entry): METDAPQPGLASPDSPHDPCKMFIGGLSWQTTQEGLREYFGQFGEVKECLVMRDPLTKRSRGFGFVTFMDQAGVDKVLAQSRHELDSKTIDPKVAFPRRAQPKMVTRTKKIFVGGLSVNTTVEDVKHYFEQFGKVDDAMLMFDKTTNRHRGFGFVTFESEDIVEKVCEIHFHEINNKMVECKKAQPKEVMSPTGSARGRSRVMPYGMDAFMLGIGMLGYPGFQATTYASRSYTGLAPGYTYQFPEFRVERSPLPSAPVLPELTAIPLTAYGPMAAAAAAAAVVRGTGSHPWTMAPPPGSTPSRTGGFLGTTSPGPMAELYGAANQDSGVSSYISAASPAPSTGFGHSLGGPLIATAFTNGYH

Going from B1 to B2, the binding signal rises from 0.256 enrichment R to 1.26 enrichment R.

First: B3
Second: B4
The binding signal of the first is higher: 1.64 enrichment R for the first, 0.49 enrichment R for the second.

First: B5
Second: B6
The binding signal of the first is higher: 0.645 enrichment R for the first, 0.461 enrichment R for the second.

Going from B7 to B8, the binding signal falls from 0.471 enrichment R to 0.401 enrichment R.

Going from B9 to B10, the binding signal rises from 0.383 enrichment R to 1.07 enrichment R.

Compared with B11, B12 is higher in binding signal: 0.9 enrichment R for the first, 1.49 enrichment R for the second.

Compared with B13, B14 is lower in binding signal: 3.21 enrichment R for the first, 1.04 enrichment R for the second.
